{"source": "paper PMC12136788", "binders": {"B1": {"name": "chr2:46810187:46810188:+_ENSG00000119729_ENST00000238738|hu_hu|FALSE|FALSE (ssRNA)", "RNA": "GGGAGUUCUACAGUCCGACGAUCAAUGUGUAAUAGUUUACUGUUGUAAUUCGUUUAUACCAUGUGUUGGACAACUCAGCUAAUAUGUUAAUUGAUUUAUACAAUUCCUUUCAAUUUUAUCUAAAAAUAAGCAGACCAAAAUUACAACAGAGGAUUGAGCAUCA"}, "B2": {"name": "chr16:94913438:94913439:+_ENSMUSG00000022897_ENSMUST00000122284|mus_mus|FALSE|FALSE (ssRNA)", "RNA": "GGGAGUUCUACAGUCCGACGAUCCAGGGAUGUCAUGGAGUGGUGACUGUGGCCAACCUCCAUAGAAUCCUGGGUAGAGGAGCUAUUUGUUGGAGAAUUGUAGACCCUUGGCCUGGUCCGGUUACCCAAGGCUUGCUGUCCAUGCAACAGAGGAUUGAGCAUCA"}, "B3": {"name": "chr2:60072956:60072957:+_ENSMUSG00000026977_ENSMUST00000102748|mus_hu|FALSE|FALSE (ssRNA)", "RNA": "GGGAGUUCUACAGUCCGACGAUCCGCACUUUUAGUUUUAUCACUUUUACCAUCAGCUGAAUUCCAACCUGAAGGAAUAAUAUCUACUGUGAUCAUGACAUUGUCGGUCAAAUUACUCCCAAGUGCUGGAGGGACUGCAAACCGCAACAGAGGAUUGAGCAUCA"}, "B4": {"name": "chr4:103806524:103806525:+_ENSG00000145354_ENST00000273986|hu_hu|FALSE|FALSE (ssRNA)", "RNA": "GGGAGUUCUACAGUCCGACGAUCUUCAUUGUGUUUAUUAUGUGAACCAUCGCAGGCAGGAAACGUUUUAGAACGCCAACACCUACAAUAAGCUGCUUUAGUAAGACACAAAUCUUCAAUGUUUAUUUCAUUCACUACUUUCGGCAACAGAGGAUUGAGCAUCA"}, "B5": {"name": "131292330_131293032_335_3pUTR_ENSMUSG00000049047_ENSMUST00000081834|mouse|control|control (ssRNA)", "RNA": "GGGAGUUCUACAGUCCGACGAUCCUUCUUCAAGUCACUUCAAGGCCACAGUAAUUGCUUACAGAGGUAAACCUCCUUAAAACAGCAGCUUGCCCCUUCUUCCUUUCCUGUGGGUUAUGCCACGCCCAACAGUCUUUCUGAUCUCAACAGAGGAUUGAGCAUCA"}, "B6": {"name": "chr12:42180722:42180723:-_ENSMUSG00000036295_ENSMUST00000043884|mus_hu|mus_mus_mus_hu_True|38_88 (ssRNA)", "RNA": "GGGAGUUCUACAGUCCGACGAUCCUGUAGGAGAAGAAUCUGUGUGUCGGCAGGCAAUCUGGCUGGGAAAGUUAAAAGACCUAAAUCAUUACAAUCCACUGUCGAUGCUUCCAUAUAAAUGGAUCUGGGUGUAAACCAAGGCCUCAACAGAGGAUUGAGCAUCA"}, "B7": {"name": "85785137_85785257_2890_3pUTR_ENSG00000153904_ENST00000284031|human|control|control (ssRNA)", "RNA": "GGGAGUUCUACAGUCCGACGAUCGUAAGCCUAAACUGGCAGAUUGGGCCAUUUUUCCUGUGGUUGUAUUUGAGAUGUUGAGCUCUCACAGGGAGAAUUUUUGCUUUUGCCAAGGAAGGGCCAGAUUUAACCCAAAAGGACAACCAACAGAGGAUUGAGCAUCA"}, "B8": {"name": "183092267_183096352_435_3pUTR_ENSMUSG00000062169_ENSMUST00000134115|mouse|control|control (ssRNA)", "RNA": "GGGAGUUCUACAGUCCGACGAUCGGCUUCUCCAGCUUCAGUCAUUUAUCAAAGCUAGAAUCAUACUAUAGAGAUACAUGAAGAAACAGAGCAGGUAGAAACCAAGCUUGAUCAUGGCUUCUUUCAUGUGUGACUUUAACUGUCCAACAGAGGAUUGAGCAUCA"}, "B9": {"name": "chr6:41757443:41757444:+_ENSG00000214736_ENST00000398881|hu_mus|hu_hu_hu_mus_False|1_28 (ssRNA)", "RNA": "GGGAGUUCUACAGUCCGACGAUCGAACCGUGCAGAGGCAACAUCUCAGCCGACACUGGGGGAUGGGGGGGCAGUGGGGGGGGGUUCAGGCAAGGAGAGGGAGUCAACCCAUCUGAACACUCAGGUAGGAUCUUGUGGGGCACACAACAGAGGAUUGAGCAUCA"}, "B10": {"name": "3726484_3727692_3388_CDS_ENSG00000110713_ENST00000324932|human|control|control (ssRNA)", "RNA": "GGGAGUUCUACAGUCCGACGAUCGAUUUCUUGAGAAGUAUCUGCUUUGGAAGGCAGGCGACUGAAGCGUUGAUCCAGUGCCAUAUCUACAUCUUCUUCAUCAGUAAGCAAUGAUGCUUUCAUGAUCUGUAAGACAUGUGGAUUCAACAGAGGAUUGAGCAUCA"}, "B11": {"name": "chr8:104447970:104447971:+_ENSG00000164934_ENST00000297579|hu_hu|hu_hu_hu_mus_False|58_78 (ssRNA)", "RNA": "GGGAGUUCUACAGUCCGACGAUCAUACACUUCCCUGCUUCGGCUCUUGUCCACAGGAAAGAUUCGAAUAGACUUAUCGAAACUAGCAGACACAAAUUCCUUCCCAGUGGGAGAGUAGUCCACAUCAAGUACUGCAGACACGUGCAACAGAGGAUUGAGCAUCA"}, "B12": {"name": "chr7:149068622:149068623:-_ENSMUSG00000025139_ENSMUST00000001950|mus_hu|mus_mus_mus_hu_False|58_88 (ssRNA)", "RNA": "GGGAGUUCUACAGUCCGACGAUCGUGAGGCCUCUGAGUGUGGCUUGUGCUCUGCAGUGGGUUAGAGUUGUUAAUAUCACUAAGUGGACCAUCUAGAACGUUCCAGUCCCGCCUGACACCUUCAUUCCCAAUGGAGAAGAAAUCCAACAGAGGAUUGAGCAUCA"}, "B13": {"name": "chr7:116544294:116544295:+_ENSG00000198898_ENST00000458284|hu_hu|FALSE|FALSE (ssRNA)", "RNA": "GGGAGUUCUACAGUCCGACGAUCUACUUCACAGGGUCUUGGAUCAGUUGCCUCCUUCCUUAAGUGAUCAAAUUUAAAACAGAUUCUGUUCUUUGGAUCCAAAAACUUUCCAUUUCCCAAGUCGCCAUGUUCUGUUAUCAAUACCAACAGAGGAUUGAGCAUCA"}, "B14": {"name": "chr4:128986876:128986877:-_ENSMUSG00000057236_ENSMUST00000102598|mus_mus|FALSE|FALSE (ssRNA)", "RNA": "GGGAGUUCUACAGUCCGACGAUCGAUGGUGAGACAGGUCAACCAAAAUGGAGAUGGCAUCAAACUAUAGUGGUCAAAGACUAACCCCUAAAAAAGCAACUUUUAUCAAGGAUUAAUUUAAUCUUAAAAACAAACACAAACUAGCAACAGAGGAUUGAGCAUCA"}, "B15": {"name": "chr2:5814250:5814251:-_ENSMUSG00000025816_ENSMUST00000102981|mus_hu|mus_mus_mus_hu_True|58_108 (ssRNA)", "RNA": "GGGAGUUCUACAGUCCGACGAUCUUCCUUUCAGGCUUCUGAAUUUCUGGUAGAACUGCACAGAAUGGUUUGAUAACUUCUAAAAACUUGAUGCCCAUGGCUGCUGCUGGGGAGGCCCAGGGGGAAACCGCGGCCUCGGCGCUGCAACAGAGGAUUGAGCAUCA"}, "B16": {"name": "chr19:26852702:26852703:+_ENSMUSG00000024921_ENSMUST00000025862|mus_mus|FALSE|FALSE (ssRNA)", "RNA": "GGGAGUUCUACAGUCCGACGAUCAUUACUGGAAUUUUAUUUGCCUCAGGCUUAUGACUUGCAACCAAAGACAUUGUGCAAAGAAAGCAAAGAUUAAGUACACUUUCGGGAGAAGGAGACCAUACACAUUGGUAACACGGGAGACAACAGAGGAUUGAGCAUCA"}, "B17": {"name": "chr2:228220401:228220402:+_ENSG00000168958_ENST00000354503|hu_hu|motif|central (ssRNA)", "RNA": "GGGAGUUCUACAGUCCGACGAUCUAGUGAAGCUGCAUCUACAACAGUCAGGUCAUCUGACGUUCCUUCAAUGGUUGUAUCGGUAUUUGAAAUGCCAUACAGAGAAUCAUUUCUGACCAGCUGUCCAUUUUGGCGAACAGCAUUCAACAGAGGAUUGAGCAUCA"}, "B18": {"name": "chr11:108043965:108043966:-_ENSG00000149308_ENST00000278612|hu_hu|motif|central (ssRNA)", "RNA": "GGGAGUUCUACAGUCCGACGAUCAGAAUUAUCUUGGCAAUUUGAUAGCUGUGACAUAACUGGUUCUAACACAUUAAUUUCGGUUUUACUCUUGUGAACUUCACUAGAAUCUGAUGACUUGGAACCAUGAAAAUUAAUUUUAAGCAACAGAGGAUUGAGCAUCA"}, "B19": {"name": "chr2:48026839:48026840:+_ENSG00000116062_ENST00000540021|hu_hu|hu_hu_hu_mus_False|68_108 (ssRNA)", "RNA": "GGGAGUUCUACAGUCCGACGAUCAUAGUGUGCCACUAGCGUCCUAAAUCUGGAACAGUGGCGGUCAUCUGAAAACUGGCCGAUGAAAAACUUGCCCAGUGAAGUGUCCACAAAGCAAACACCAUACACACGAGUGUGACCAGACAACAGAGGAUUGAGCAUCA"}, "B20": {"name": "chrX:69798090:69798091:-_ENSMUSG00000031343_ENSMUST00000055966|mus_mus|mus_mus_mus_hu_False|18_28 (ssRNA)", "RNA": "GGGAGUUCUACAGUCCGACGAUCAAGUCCCCGGGUUCUUGUCGUCUUGAUUCCCCUUGACCAGUGGUUCCAGGGAGAAUAUUAAUCAGGAAAAGAAUCCCAAGGCUGGUCACAUAAAAGUGCCACAUUUGUGUGAUUAUCAUCCAACAGAGGAUUGAGCAUCA"}, "B21": {"name": "chr5:173383253:173383254:+_ENSG00000113742_ENST00000334035|hu_hu|motif|central (ssRNA)", "RNA": "GGGAGUUCUACAGUCCGACGAUCAAAACACCUAUAUUAUAGGUCAUUCUUUUCAUUAUACUAUAGUUAAGUUACAGACUGCGGCAAAAGGACAUGCCAGCGUGAAGAGGUUGAGGAAGGGGUCAGAAUGAACAGAAGAGUGCACAACAGAGGAUUGAGCAUCA"}, "B22": {"name": "chr5:135702403:135702404:+_ENSMUSG00000002748_ENSMUST00000002825|mus_mus|motif|central (ssRNA)", "RNA": "GGGAGUUCUACAGUCCGACGAUCGUCACACAGGAACCAUAAGUUUUGUCCUUGCUUGGGCACAGUGGUCUCCACAGCUUCGGGUGCUGGUCCAUGGUGCGCAUUCACACUUGCAUUCUUGCCUAGGUUUGCUUUCUUACUUCGCAACAGAGGAUUGAGCAUCA"}}, "note": "The other results are listed elsewhere or left out.", "data": [{"molecular_target": "T1, UNK ZnF1-3 (human, UniProt Q9C0B0 31-174)", "T1 sequence": "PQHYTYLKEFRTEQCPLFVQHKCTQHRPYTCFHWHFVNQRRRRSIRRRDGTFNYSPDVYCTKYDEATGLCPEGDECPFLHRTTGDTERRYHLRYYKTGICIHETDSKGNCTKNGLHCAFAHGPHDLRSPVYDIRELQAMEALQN", "assay": "nsRBNS (natural sequence RNA bind-n-seq); RBNS binding buffer (assumed for nsRBNS): 25 mM Tris pH 7.5, 150 mM KCl, 3 mM MgCl2, 0.01% Triton X-100, 500 ug/ml BSA, 20 U/ml SUPERase-In, 4 C; UNK is unkempt and MSI1 is Musashi-1; names of the RNAs are library labels; protein concentration not given here; high values mean tight binding", "units": {"binding signal": "enrichment R"}, "values": [{"binder": "B1", "binding signal": 1.76}, {"binder": "B2", "binding signal": 0.551}, {"binder": "B3", "binding signal": 0.723}, {"binder": "B4", "binding signal": 0.682}, {"binder": "B5", "binding signal": 0.652}, {"binder": "B6", "binding signal": 1.39}, {"binder": "B7", "binding signal": 1.06}, {"binder": "B8", "binding signal": 0.926}, {"binder": "B9", "binding signal": 2.21}, {"binder": "B10", "binding signal": 0.662}, {"binder": "B11", "binding signal": 0.827}, {"binder": "B12", "binding signal": 0.727}, {"binder": "B13", "binding signal": 0.978}, {"binder": "B14", "binding signal": 1.7}, {"binder": "B15", "binding signal": 1.36}, {"binder": "B16", "binding signal": 1.64}, {"binder": "B17", "binding signal": 0.487}, {"binder": "B18", "binding signal": 0.729}, {"binder": "B19", "binding signal": 1.01}, {"binder": "B20", "binding signal": 0.783}, {"binder": "B21", "binding signal": 2.7}, {"binder": "B22", "binding signal": 0.551}]}]}
